Among all 370,000 compounds or so, about 1,100 (0.3%) were called active. Inconclusive means that the source gave no clear call. Such entries were picked first, then a sample of the others. Calls follow the shape of the dose curve; as a rule, active = well fitted activation curve with a large enough effect; inconclusive = small, poorly fitted or top-dose-only effect; inactive = flat fitted curve, though single readings scatter. Potencies beside an inconclusive call are fits to weak or partial responses and may not hold up.
Target: Relaxin receptor 1 (Homo sapiens) (UniProt Q9HBX9)
Chain of UniProt Q9HBX9 (Q9HBX9 whole entry, looked up): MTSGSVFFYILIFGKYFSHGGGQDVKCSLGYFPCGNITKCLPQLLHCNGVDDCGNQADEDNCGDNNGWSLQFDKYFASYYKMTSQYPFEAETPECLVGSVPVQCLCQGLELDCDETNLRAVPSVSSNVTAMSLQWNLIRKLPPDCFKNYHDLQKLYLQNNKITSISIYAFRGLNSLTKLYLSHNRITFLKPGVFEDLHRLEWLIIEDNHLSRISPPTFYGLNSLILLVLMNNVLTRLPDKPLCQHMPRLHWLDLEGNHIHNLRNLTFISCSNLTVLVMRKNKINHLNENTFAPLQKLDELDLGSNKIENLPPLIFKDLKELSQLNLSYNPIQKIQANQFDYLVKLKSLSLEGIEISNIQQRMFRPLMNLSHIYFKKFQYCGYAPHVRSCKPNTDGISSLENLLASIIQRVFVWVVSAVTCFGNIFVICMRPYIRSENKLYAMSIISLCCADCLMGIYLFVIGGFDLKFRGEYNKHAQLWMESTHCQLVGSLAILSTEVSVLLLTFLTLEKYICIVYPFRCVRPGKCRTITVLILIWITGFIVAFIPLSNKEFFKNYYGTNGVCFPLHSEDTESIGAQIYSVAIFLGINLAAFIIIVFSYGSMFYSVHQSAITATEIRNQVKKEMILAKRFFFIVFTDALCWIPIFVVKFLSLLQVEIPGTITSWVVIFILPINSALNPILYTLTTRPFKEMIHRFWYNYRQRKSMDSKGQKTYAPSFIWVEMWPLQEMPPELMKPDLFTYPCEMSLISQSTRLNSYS
Test: qHTS Assay for Agonists of the Relaxin Receptor RXFP1; also: nearly all actives have a fitted effect of over 60% in size
Details: HEK293T-RXFP1 cAMP TR-FRET, 30 min; series mostly up to 57.5 µM
In short: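 Agonist response is measured as cAMP accumulation in an RXFP1-transfected HEK293T line under PDE4 inhibition. Values are scaled between buffer-only and 29 nM porcine relaxin, and EC50s come from standard Hill equation fits.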
Potency is read from the fitted curve at half-maximal effect; tags tell the direction and shape of the fitted curve.

Potency, inconclusive:
COc1ccc(C(=O)Nc2nc(CC(=O)NCCc3ccccc3OC)cs2)cc1 35.5 µM [activator, single point], COc1cc2c(=O)n(CCC(=O)NCC3CCCO3)c(=O)n(CC(=O)Nc3c(C)cccc3C)c2cc1OC (centres undefined) 39.8 µM [activator, single point], CCc1nnc(SCc2nc(-c3ccccc3)oc2C)c2cc3sccc3n12 28.2 µM [activator, partial curve], Nc1c(C(=O)Nc2ccc(Cl)cc2F)sc2nc(-c3cccs3)ccc12 28.2 µM [activator, partial curve], COc1ccc(C(=O)Nc2ccc3nc(SCC(=O)N4CCOCC4)sc3c2)cc1 39.8 µM [activator, single point], COC(=O)c1ccc(OC)c(Cn2c(=O)n(-c3ccc(C)cc3)c(=O)c3c2cnn3C)c1 14.1 µM [activator, partial curve], COc1ccc(-n2c(=O)c3sc4ccccc4c3n(Cc3ccccc3)c2=O)cc1 35.5 µM [activator, single point], O=C(COC(=O)c1cc(Cl)ccc1O)NC(=O)NCc1ccccc1 39.8 µM [activator, single point], CCCCOc1ccc(C2/C(=C(/O)c3ccc4c(c3)CC(C)O4)C(=O)C(=O)N2CCCN2CCOCC2)cc1OC (centres undefined) 31.6 µM [activator, partial curve], Cc1ccc2nc(-c3ccc(NC(=O)COC(=O)c4cncc(Br)c4)cc3)sc2c1 22.4 µM [activator, partial curve], CCOC(=O)c1[nH]cnc1C(=O)Nc1ccccc1OC 17.8 µM [activator, partial curve], COc1ccc(CCNC(=O)CCCn2c(=O)c3cccn3c3ccc(F)cc32)cc1OC 28.2 µM [activator, partial curve]

Potency, inactive:
CSc1ccc(CC(=O)N2CCC(n3nccc3NC(=O)C3CC3)CC2)cc1, COc1cccc(CCNc2ncnc3c2nnn3C)c1, CNc1cc(CSC)nc(SCc2ccc(Cl)c(Cl)c2)n1, O=C1c2ccccc2-c2nnc(-c3ccc(O)cc3)cc21, CCCCCn1c(N)c(C#N)c2nc3ccccc3nc21, COc1ccc(NC(=O)N(Cc2ccco2)C2CCN(C(C)=O)CC2)c(OC)c1, CC1=C(C#N)C(c2cccnc2)C2=C(CC(C)(C)CC2=O)N1 (centres undefined)

— PubChem BioAssay AID2676 (National Center for Advancing Translational Sciences (NCATS), 2010)
